Measurements published in patent US9682994B2, “Inhibitors of retroviral replication” (The Scripps Research Institute, priority 2011, dated 2017).

Target: P-TEFb complex, CDK9 and Cyclin T1 (Homo sapiens, UniProt O60563+P50750)
Test: Bio-CA pull-down, P-TEFb
Description: FIG. 15: CA binds Tat but not to TAR-nonbinding mutant of Tat. HEK293T cells were transfected with wt-Tat101-flag, vvtTat86-flag, Tat86mutant-TAR domain, CDK11-flag or 9G8-flag as negative control. Forty hours later, protein extracts were incubated with DYNABEADS® MYONE™ Streptavidin T1 coated with either biotin or Biotinylated-CA. Pulled down proteins analyzed by Western blot with the indicated antibodies.
Using Bio-CA coupled to magnetic streptavidin beads, it was shown that CA interacts with Tat-flag transfected into cells but not with a mutant of Tat that no longer binds TAR. […] All the associations between CA and the cellular proteins observed might be direct or indirect, and experiments using recombinant proteins are necessary to determine the nature of these interactions.

P-TEFb complex, CDK9 and Cyclin T1, sequence (P50750 whole entry): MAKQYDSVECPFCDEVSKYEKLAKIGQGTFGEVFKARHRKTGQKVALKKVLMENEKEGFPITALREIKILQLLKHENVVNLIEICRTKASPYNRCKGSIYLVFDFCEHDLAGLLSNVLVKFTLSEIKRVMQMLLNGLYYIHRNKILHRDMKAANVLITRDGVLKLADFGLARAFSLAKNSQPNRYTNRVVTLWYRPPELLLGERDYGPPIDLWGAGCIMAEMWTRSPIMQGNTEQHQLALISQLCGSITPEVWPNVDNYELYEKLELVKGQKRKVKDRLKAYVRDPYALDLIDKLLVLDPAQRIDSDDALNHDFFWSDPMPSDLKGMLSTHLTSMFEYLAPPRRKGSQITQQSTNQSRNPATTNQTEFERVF
P-TEFb complex, CDK9 and Cyclin T1, sequence (O60563 whole entry): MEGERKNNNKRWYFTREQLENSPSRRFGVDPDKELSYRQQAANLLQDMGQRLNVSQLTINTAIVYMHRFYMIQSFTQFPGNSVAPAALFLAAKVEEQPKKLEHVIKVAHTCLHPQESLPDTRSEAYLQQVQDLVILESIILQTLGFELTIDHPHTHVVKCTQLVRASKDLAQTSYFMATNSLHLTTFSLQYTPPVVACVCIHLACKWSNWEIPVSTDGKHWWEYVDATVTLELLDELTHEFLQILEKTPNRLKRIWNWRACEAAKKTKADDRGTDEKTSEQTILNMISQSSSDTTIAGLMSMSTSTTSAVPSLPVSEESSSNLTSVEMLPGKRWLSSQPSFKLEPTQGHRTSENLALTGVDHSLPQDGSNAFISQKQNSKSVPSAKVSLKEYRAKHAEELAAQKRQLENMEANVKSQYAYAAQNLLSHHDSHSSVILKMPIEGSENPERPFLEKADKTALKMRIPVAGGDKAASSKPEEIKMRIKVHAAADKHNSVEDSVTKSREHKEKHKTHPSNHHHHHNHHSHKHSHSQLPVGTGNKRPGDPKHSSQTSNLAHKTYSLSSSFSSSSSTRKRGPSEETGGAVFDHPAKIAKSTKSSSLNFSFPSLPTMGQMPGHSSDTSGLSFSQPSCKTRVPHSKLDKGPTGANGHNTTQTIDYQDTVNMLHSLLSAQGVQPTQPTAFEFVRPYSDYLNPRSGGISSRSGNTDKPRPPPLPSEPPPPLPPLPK

SMILES: CN(C)C1CC23CCC4(O2)C(=CCC2(C)C(c5ccc6ccncc6c5)CCC42)C=C3C(O)C1O (stereo not shown) [CA, Cortistatin A]
- interaction with P-TEFb complex (CDK9 and Cyclin T1): shown to interact
